Reference: PMC12136788
Numbering of substitutions follows the chain as printed. The list shows a part of the results.

T1: UNK ZnF1-3 (human, UniProt Q9C0B0 31-174)
T1 sequence: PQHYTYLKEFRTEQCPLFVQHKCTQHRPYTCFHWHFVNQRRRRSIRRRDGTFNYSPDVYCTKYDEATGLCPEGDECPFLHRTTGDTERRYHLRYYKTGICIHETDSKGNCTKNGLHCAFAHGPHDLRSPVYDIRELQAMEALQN

B1: 3701737_3703502_1075_CDS_ENSG00000130764_ENST00000378251|human|control|control (ssRNA)
RNA: GGGAGUUCUACAGUCCGACGAUCCUUCUCACAGAGAUCUUCGUGGAGCUUGGUCUGCGAGGUGAGGAAGCGCUUGAGUGCAUUCCCUGGCUGCAGGUCCAUGCCUCGCACCACGGCCCCCACAAUGUAGGGCCGCACAUCCCGCAACAGAGGAUUGAGCAUCA
B2: chr17:38556828:38556829:-_ENSG00000131747_ENST00000423485|hu_hu|motif|central (ssRNA)
RNA: GGGAGUUCUACAGUCCGACGAUCGGUCCAUGUUCUGACGGGAAGCUCUGAGAUUUCAAUGGUUGUAGAAUUAAGAAUAGCGGCUUCACCACUAAUCACAUAUUGAUUUGGAGCCAGUUCUUCAAUAGUACCCUUGAAGUUCUUCAACAGAGGAUUGAGCAUCA
B3: chr3:176767854:176767855:-_ENSG00000177565_ENST00000430069|hu_hu|hu_hu_hu_mus_False|48_98 (ssRNA)
RNA: GGGAGUUCUACAGUCCGACGAUCGACAUCCUUGUUACUUGGAACAUCCUGCCCUCCUUCCCGUAUGCAGUGUCUAAGCACGAGCUGUGUAGAGCCACUCGUGCUGUUCUCACUGAGGUUCCAGAUUCUUGCCGUGGAGUCUCCCAACAGAGGAUUGAGCAUCA
B4: 101158442_101158562_1428_3pUTR_ENSMUSG00000056537_ENSMUST00000070705|mouse|control|control (ssRNA)
RNA: GGGAGUUCUACAGUCCGACGAUCGUUUGAAUUGCAACAGAUGUAGUUUCACUUAAUCCAGUAUUUAAGAUUCUGCGAAUAGGAAUCCUGAUAGUACUCACAUAGGUUCUCACACCUGCACGUUCAGAACGGGAAAAGGUACGCCAACAGAGGAUUGAGCAUCA
B5: chr2:47389482:47389483:-_ENSG00000143933_ENST00000272298|hu_hu|motif|central (ssRNA)
RNA: GGGAGUUCUACAGUCCGACGAUCUUCUGCAGCACUAAUAUAGCCAUUGCCAUCCUUAUCAAACACACGGAAUGCUUCUCGGAUUUCUUCUUCACUGUCUGUGUCUUUCAUUUUUCUUGCCAUCAUUGUCAGAAAUUCAGGGAACAACAGAGGAUUGAGCAUCA
B6: chr6:38652254:38652255:-_ENSG00000124767_ENST00000373365|hu_hu|hu_hu_hu_mus_False|68_108 (ssRNA)
RNA: GGGAGUUCUACAGUCCGACGAUCCGAAAACUUCAUAGCAGGGAAGUCAAGCUUCUGCAGGAGGGUCAUUCCAAGAACCCUCGUAUAAAAAUCCAGGGACUUCUUAGGAUCCUUAAUUCUUAGCAUCGUUUGCUGCAGUAGAAACAACAGAGGAUUGAGCAUCA
B7: chr15:98867917:98867918:+_ENSMUSG00000043091_ENSMUST00000058914|mus_hu|FALSE|FALSE (ssRNA)
RNA: GGGAGUUCUACAGUCCGACGAUCAGGGUCACAUUUCACCAUCUGGUUGGCUGGCUCAAAGCAAGCAUUGGUGAUCUCUGCUACAGUAAGCUGUUCGUGGUAGGCUUUCUCAGCAGAGAUGACAGGGGCAUAUGUGGCCAGAGGCAACAGAGGAUUGAGCAUCA
B8: chr12:42180722:42180723:-_ENSMUSG00000036295_ENSMUST00000043884|mus_hu|mus_mus_mus_hu_True|58_68 (ssRNA)
RNA: GGGAGUUCUACAGUCCGACGAUCCUGUAGGAGAAGAAUCUGUGUGUUAGCUGGCAAUCUGGCUGGGAAGUUUAAAAGCCCUAAAUCAUUACAAUCCACUGUAGAUGCUUCCAUAUAAAUGGAUCUGGGUGUAAACCAAGGCCUCAACAGAGGAUUGAGCAUCA
B9: 100120078_100120198_104_5pUTR_ENSG00000154174_ENST00000284320|human|control|control (ssRNA)
RNA: GGGAGUUCUACAGUCCGACGAUCCCUUUUUCUUUCUUUUCGCCCCGCUGCUGUUCGGGAGAUGGACUUCUGGAGUCCCCGUCGUAGCUGGUGUUGUCCCCUCUACCUUCAGGAAAGAAGGGCAGAUGGCCCUCUUGCCUACUGCAACAGAGGAUUGAGCAUCA
B10: chr3:176767854:176767855:-_ENSG00000177565_ENST00000430069|hu_hu|hu_hu_hu_mus_False|38_38 (ssRNA)
RNA: B3 RNA with U39G, A42C, A45G, U87C, A92G, C99G
B11: chr1:39494447:39494448:+_ENSG00000168653_ENST00000372967|hu_mus|hu_hu_hu_mus_False|1_28 (ssRNA)
RNA: GGGAGUUCUACAGUCCGACGAUCGCACCGAGCGGCGUUCUUAUAGGGCUGUUCUGCGCUUAGGAACAUAAAGUGCCGGUCCAGGCUGAUGCCCAGCUUUUUCUGUAUGUCCAAGAAAGGCAUGGCUCUGCAGUGCCCCCUUGACAACAGAGGAUUGAGCAUCA
B12: chr12:39763582:39763583:-_ENSG00000139116_ENST00000544797|hu_mus|hu_hu_hu_mus_False|18_108 (ssRNA)
RNA: GGGAGUUCUACAGUCCGACGAUCCUCUAAGAAUUGGGCAUUCACUUUGAAUUCAGGAGGGGGCAGCCCGUUUUUAAUCGCUGAGGUCUUUUUCUCAUCAAUACUCUUGAACAGGUGUUUAACAGCUCGAGAGAUGAUGCCCUGCAACAGAGGAUUGAGCAUCA
B13: chr5:145543945:145543946:-_ENSG00000133706_ENST00000545646|hu_hu|hu_hu_hu_mus_True|78_98 (ssRNA)
RNA: GGGAGUUCUACAGUCCGACGAUCCUGAACGGCCAGUGGCGGGAAAUAAUCAAGCCAAUGUUCUGCUUCAGAAAACUUCACUAUGUCGUCAUCAGAGAGCCCAAGGGAUUUCAUAAUGUCCCACUGGUACUUAGAAGAUCCUGCCAACAGAGGAUUGAGCAUCA
B14: chr9:78015909:78015910:+_ENSMUSG00000009828_ENSMUST00000044551|mus_mus|FALSE|FALSE (ssRNA)
RNA: GGGAGUUCUACAGUCCGACGAUCUAAAUUAUCUUGUAUCCCACUGUCUUAAACUGCACCCUGUCACAAUACUGAAUCAAUAUUAUUACAUAUUUCAAAAUCUGUAUAAAAUAUUACAUGGAACAAUGAACAAAAAAUCACUUACAACAGAGGAUUGAGCAUCA
B15: chr7:3571038:3571039:+_ENSMUSG00000035674_ENSMUST00000076657|mus_mus|motif|central (ssRNA)
RNA: GGGAGUUCUACAGUCCGACGAUCUGGGUAGUUGUAGGGUGUGGCCUUGUUGAUCAUGCUAGCAUACUUGGUGUAGGGGCGGAUCAUGGGCAUAAUUAUAGCGAGGCCCCAGACAGAGAAGGACACCACCAGCACCGGCUCCUUCAACAGAGGAUUGAGCAUCA
B16: chr11:70781491:70781492:-_ENSMUSG00000040667_ENSMUST00000108530|mus_mus|motif|central (ssRNA)
RNA: GGGAGUUCUACAGUCCGACGAUCCUUCCCCCACCUCUGAGGUAAUUCUAAUGCCAUAAGUCCUUUACUUCCGAUAAGUGCGGCAUGAUGUUGGGUUGGACUCAACAAGACUUGAUGGAUUUCAAACAAGGGUGGAUUAAUGCACAACAGAGGAUUGAGCAUCA
B17: chr15:73134924:73134925:-_ENSMUSG00000022607_ENSMUST00000110036|mus_hu|motif|central (ssRNA)
RNA: GGGAGUUCUACAGUCCGACGAUCAUCAAAUCUGUAGACUGGAGACAGGAUCUCAAAGAAUUUCAGAAUACUUUCUUCUCGGUUAAGGUUGGCAAAUUGUCUAAAUGUUUGUUGGAUCAGUUUUCUUAGUGUUUUGGCCUUGACCAACAGAGGAUUGAGCAUCA
B18: 35972796_35972916_658_3pUTR_ENSMUSG00000001525_ENSMUST00000001566|mouse|control|control (ssRNA)
RNA: GGGAGUUCUACAGUCCGACGAUCGAUCUUGCUGAUGAGCAGGGUGCCCAUGCCAGAGCCAGUGCCUCCACCCAGUGAGUGGGUCAGCUGAAAGCCUUGCAGGCAAUCACAGCUCUCCGCCUCCUUCCGCACCACAUCCAAGACCAACAGAGGAUUGAGCAUCA
B19: chr3:95127578:95127579:-_ENSMUSG00000015697_ENSMUST00000107170|mus_mus|FALSE|FALSE (ssRNA)
RNA: GGGAGUUCUACAGUCCGACGAUCGGUUAUGUAACAUUUUUAGUUAAAAAUUACACAGGGCAAAUAAAAUCGAGGUAUAAACUAAUGAUAGUUGCCCACUGGGAAAUGACAUGGAAGAUCAAGGCAGGAGAUAAGACAAACCACCAACAGAGGAUUGAGCAUCA
B20: chr2:109738910:109738911:+_ENSMUSG00000027162_ENSMUST00000028583|mus_hu|FALSE|FALSE (ssRNA)
RNA: GGGAGUUCUACAGUCCGACGAUCUUGAAAACUGGAAUAAUCAUCUGAGACUCACAGUGAUCACAAACAUGCAGAAAAAAGCAUACAAUUCUAUUCUUCCUGAAGGAAUGUUACAAAAUGCCCACUUUUUUAUAUAGGGUCAAUCAACAGAGGAUUGAGCAUCA
B21: chr16:94664741:94664742:+_ENSMUSG00000040785_ENSMUST00000117648|mus_hu|mus_mus_mus_hu_False|1_88 (ssRNA)
RNA: GGGAGUUCUACAGUCCGACGAUCUGGUACUGAUCUUGGUAGCUGAUACUCAGAAGAAAGGCUGGCCAAGGGUGUAUAUAUGCUGGUGUACUGGGGCAAACCUGGUAACACGUUUAUGUAUGCUGGCGGUGUCUGGGUGCCAAACAACAGAGGAUUGAGCAUCA
B22: chr6:13820011:13820012:-_ENSMUSG00000052419_ENSMUST00000155856|mus_mus|motif|central (ssRNA)
RNA: GGGAGUUCUACAGUCCGACGAUCGUUUAGUACAUUUUUAUUAAACUUUUUCUCAGAGAUAAAAGUUUUUGGCUAAGAUCGGAGUACAAUAUCAACUUGCGAGAUAAAAACAGAAGCAUUAAAAAAAAAGAAAACCAGUAACAACAACAGAGGAUUGAGCAUCA

What follows are binders tested against T1, UNK ZnF1-3 (assay: nsRBNS (natural sequence RNA bind-n-seq); RBNS binding buffer (assumed for nsRBNS): 25 mM Tris pH 7.5, 150 mM KCl, 3 mM MgCl2, 0.01% Triton X-100, 500 ug/ml BSA, 20 U/ml SUPERase-In, 4 C; UNK is unkempt and MSI1 is Musashi-1; names of the RNAs are library labels; protein concentration not given here; high values mean tight binding).

| Binder | binding signal [enrichment R] |
| --- | --- |
| B1 | 0.47 |
| B2 | 0.794 |
| B3 | 0.608 |
| B4 | 0.934 |
| B5 | 0.652 |
| B6 | 0.583 |
| B7 | 0.819 |
| B8 | 1.18 |
| B9 | 0.636 |
| B10 | 0.503 |
| B11 | 0.804 |
| B12 | 1.6 |
| B13 | 1.37 |
| B14 | 2.04 |
| B15 | 1.16 |
| B16 | 1.03 |
| B17 | 1.56 |
| B18 | 1.38 |
| B19 | 1.13 |
| B20 | 0.758 |
| B21 | 0.988 |
| B22 | 1.23 |
